Data taken from PubChem BioAssay AID504333 (National Center for Advancing Translational Sciences (NCATS), 2011).
Hit rate of the full screen: of about 360,000 compounds, about 16,000 (4.4%) were called active. Inconclusive results, whose numbers are uncertain, are shown with a selection of clear calls. Calls follow the shape of the dose curve; as a rule, active = well fitted inhibition curve with a large enough effect; inconclusive = small, poorly fitted or top-dose-only effect; inactive = no such curve, though single readings can be large or run the other way. Potencies of inconclusive entries are doubtful fits and often do not repeat.

target: Bromodomain adjacent to zinc finger domain protein 2B (Homo sapiens) (UniProt Q9UIF8); test: qHTS Assay for Inhibitors of BAZ2B; conditions: AlphaScreen BAZ2B-H3K14Ac peptide displacement; series mostly up to 114 µM; also: nearly all actives have a fitted effect of over 60% in size
UniProt Q9UIF8, sequence (Q9UIF8 whole entry, looked up, the tested form may be a part): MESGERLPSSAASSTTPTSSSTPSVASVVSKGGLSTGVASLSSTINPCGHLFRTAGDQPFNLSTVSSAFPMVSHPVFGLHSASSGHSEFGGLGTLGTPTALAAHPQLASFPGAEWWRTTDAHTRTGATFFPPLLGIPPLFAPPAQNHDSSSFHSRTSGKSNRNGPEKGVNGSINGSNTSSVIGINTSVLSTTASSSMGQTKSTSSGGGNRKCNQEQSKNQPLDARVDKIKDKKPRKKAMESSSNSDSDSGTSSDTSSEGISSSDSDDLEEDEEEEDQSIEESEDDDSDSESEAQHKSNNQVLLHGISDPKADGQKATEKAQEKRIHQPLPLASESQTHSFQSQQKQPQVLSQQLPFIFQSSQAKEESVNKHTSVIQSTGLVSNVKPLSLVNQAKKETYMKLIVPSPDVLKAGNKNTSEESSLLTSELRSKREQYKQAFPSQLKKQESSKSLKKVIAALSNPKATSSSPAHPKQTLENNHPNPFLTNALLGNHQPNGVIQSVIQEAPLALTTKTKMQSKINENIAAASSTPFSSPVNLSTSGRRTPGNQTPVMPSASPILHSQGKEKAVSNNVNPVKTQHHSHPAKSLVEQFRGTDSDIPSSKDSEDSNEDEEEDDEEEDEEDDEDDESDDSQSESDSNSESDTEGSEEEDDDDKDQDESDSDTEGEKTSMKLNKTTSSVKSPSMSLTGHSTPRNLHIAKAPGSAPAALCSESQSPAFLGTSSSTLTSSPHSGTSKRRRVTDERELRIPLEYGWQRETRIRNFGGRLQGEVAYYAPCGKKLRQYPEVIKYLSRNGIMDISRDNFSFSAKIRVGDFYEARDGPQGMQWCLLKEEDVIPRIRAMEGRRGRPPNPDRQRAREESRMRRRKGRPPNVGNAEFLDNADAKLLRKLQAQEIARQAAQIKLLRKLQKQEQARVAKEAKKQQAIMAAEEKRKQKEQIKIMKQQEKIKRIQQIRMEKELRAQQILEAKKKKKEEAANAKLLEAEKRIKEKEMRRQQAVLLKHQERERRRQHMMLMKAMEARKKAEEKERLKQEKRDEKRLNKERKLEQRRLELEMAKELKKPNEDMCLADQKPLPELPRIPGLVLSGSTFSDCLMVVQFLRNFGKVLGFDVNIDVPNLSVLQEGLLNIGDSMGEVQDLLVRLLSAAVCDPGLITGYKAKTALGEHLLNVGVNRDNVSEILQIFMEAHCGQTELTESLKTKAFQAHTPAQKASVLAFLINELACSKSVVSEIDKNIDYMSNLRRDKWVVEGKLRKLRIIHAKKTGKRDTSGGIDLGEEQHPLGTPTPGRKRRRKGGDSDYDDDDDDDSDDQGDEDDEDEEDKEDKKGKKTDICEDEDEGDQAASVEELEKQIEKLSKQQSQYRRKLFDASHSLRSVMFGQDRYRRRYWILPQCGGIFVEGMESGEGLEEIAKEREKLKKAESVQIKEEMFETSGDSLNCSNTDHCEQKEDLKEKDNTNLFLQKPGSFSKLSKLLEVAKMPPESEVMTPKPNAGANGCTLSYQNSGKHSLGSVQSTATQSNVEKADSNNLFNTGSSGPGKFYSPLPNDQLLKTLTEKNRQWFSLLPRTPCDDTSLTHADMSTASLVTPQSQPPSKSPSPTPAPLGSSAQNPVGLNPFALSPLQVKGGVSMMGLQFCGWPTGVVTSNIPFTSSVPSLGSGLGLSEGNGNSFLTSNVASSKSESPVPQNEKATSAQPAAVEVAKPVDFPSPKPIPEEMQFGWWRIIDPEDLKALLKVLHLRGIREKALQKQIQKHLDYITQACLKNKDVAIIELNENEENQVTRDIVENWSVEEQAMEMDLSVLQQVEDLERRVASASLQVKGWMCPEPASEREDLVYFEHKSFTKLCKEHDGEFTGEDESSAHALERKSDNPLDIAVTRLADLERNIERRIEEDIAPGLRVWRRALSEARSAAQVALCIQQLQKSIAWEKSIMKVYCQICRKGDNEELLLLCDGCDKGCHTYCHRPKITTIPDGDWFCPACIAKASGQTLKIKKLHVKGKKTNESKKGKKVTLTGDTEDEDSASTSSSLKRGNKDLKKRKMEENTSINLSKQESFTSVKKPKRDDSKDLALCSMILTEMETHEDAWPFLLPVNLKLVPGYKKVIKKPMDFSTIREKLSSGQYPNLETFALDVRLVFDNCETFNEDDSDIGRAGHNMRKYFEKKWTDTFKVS
Outline: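 Complex of BAZ2B and biotin-H3K14Ac (50 nM apiece) forms over 30 min at RT, then faces library compounds up to 110 uM for another 30 min; AlphaScreen beads added, 20 min dark incubation, luminescence read.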
Potency is read from the fitted curve at half-maximal effect; tags tell the direction and shape of the fitted curve.

| Structure (SMILES) | Potency |
| --- | --- |
| c1ccc(C2=Nc3ccccc3SC2c2nc3ccccc3[nH]2)cc1 (stereo unspecified) | inconclusive: 39.8 µM [inhibitor, partial curve] |
| CCN(CC)CCN(C(=O)c1ccco1)c1nc2c(C)c(C)ccc2s1 | inconclusive: 79.4 µM [inhibitor, single point] |
| CCc1ccc(C2=NN(S(C)(=O)=O)C(c3cccs3)C2)cc1 (stereo unspecified) | inconclusive: 11.2 µM [inhibitor, single point] |
| CC(C)[C@H](NC(=O)[C@H]1N2C(=O)c3ccccc3C2SC1(C)C)C(=O)NCc1ccco1 (stereo partly specified) | inconclusive: 79.4 µM [inhibitor, single point] |
| CCn1c(=O)cc(OCC(=O)N2CCN(c3ccc(C(C)=O)cc3)CC2)c2ccccc21 | inconclusive: 100 µM [inhibitor, single point] |
| Cc1cc(C)n(-c2ccc(NC(=O)C3CCCCN3C(=O)c3sccc3C)cc2)n1 (stereo unspecified) | inactive |
| COc1ccc(N2CCN(C(=O)CN3CCSc4ccccc43)CC2)cc1 | inconclusive: 39.8 µM [inhibitor, partial curve] |
| Cn1c(SCc2ccc(C#N)cc2)nnc1-c1cccc(Cl)c1 | inactive |
| O=C(C1=C[C@@H](c2csc3ccccc23)C[C@@H](OCCCCO)O1)N1CCN(Cc2ccc3c(c2)OCO3)CC1 | inconclusive: 44.7 µM [inhibitor, partial curve] |
| Nc1nccnc1C(=O)OCC(=O)N1CCN(S(=O)(=O)c2ccc(Cl)cc2)CC1 | inconclusive: 89.1 µM [inhibitor, single point] |
| Cc1ccc(C(=O)CCNc2ccc(Br)cc2)o1 | inconclusive: 89.1 µM [inhibitor, single point] |
| COC(=O)C1=C(C)NC(=O)NC1c1cn(-c2ccccc2)nc1-c1ccc(OC)c(Br)c1 (stereo unspecified) | inconclusive: 70.8 µM [inhibitor, partial curve] |
| CC(=O)NS(=O)(=O)c1ccc(NC(=O)c2cc(-c3ccc(C)c(C)c3)nc3ccccc23)cc1 | inconclusive: 31.6 µM [inhibitor, single point] |
| O=c1oc2cc(O)ccc2cc1-c1nc(-c2ccc(Cl)c(Cl)c2)cs1 | inactive |
| CCCn1c(COc2cccc(C)c2)nc2ccccc21 | inactive |
| CC(=O)C1=C(C)NC(SCSc2ccccc2)=C(C#N)C1c1cccnc1 (stereo unspecified) | inactive |
| Cc1ccc(S(=O)(=O)C(CNC(=O)COc2ccccc2)c2cccs2)cc1 (stereo unspecified) | inconclusive: 15.8 µM [inhibitor, full curve] |
| C[C@H]1CN(C2CCCCC2)C(=O)[C@@H]1CC(=O)NCc1ccccc1 | inactive |
| COc1ccc(C2NC(=O)NC3=C2CCc2ccccc23)cc1 (stereo unspecified) | inactive |
| O=C(N/N=C/c1ccc(Br)s1)c1ccccc1[N+](=O)[O-] | inactive |
| CC(=O)Nc1sc(N/N=C\c2ccc(O)cc2)nc1-c1cccs1 | inconclusive: 50.1 µM [inhibitor, partial curve] |
| O=C(O)c1cccc(N/N=C/c2sc(N3CCOCC3)nc2-c2ccccc2)c1 | inconclusive: 79.4 µM [inhibitor, partial curve] |

| Structure (SMILES) | Potency |
| --- | --- |
| CCOC(=O)c1c(-c2ccccc2)csc1NC(=O)C1CCCO1 (stereo unspecified) | inactive |
| Cc1cc2occ(CC(=O)NCc3cccs3)c2cc1C(C)C | inactive |
| CCOC(=O)c1c(NC(=O)CCl)sc(CN(C)C)c1-c1ccccc1 | inconclusive: 70.8 µM [inhibitor, single point] |
| O=C(O)c1ccccc1NC(=O)c1cc(-c2ccccc2)nc2ccccc12 | inconclusive: 89.1 µM [inhibitor, single point] |
| CCc1ccc(NS(=O)(=O)c2ccc3[nH]cc(C(=O)N4CCc5ccccc54)c(=O)c3c2)cc1 | inconclusive: 79.4 µM [inhibitor, single point] |
| C(=N\Nc1ccc2ccccc2n1)/c1ccc2c(c1)OCCO2 | inconclusive: 39.8 µM [inhibitor, partial curve] |
| O=C(NC(Cc1ccc2c(c1)OCO2)C(=O)NC(Cc1ccccc1)C(=O)O)c1ccccc1 (stereo unspecified) | inconclusive: 3.55 µM [inhibitor, single point] |
| Cc1[nH][nH]c(=O)c1C(c1ccc(-c2ccccc2C(=O)O)o1)c1c(C)[nH][nH]c1=O | active: 35.5 µM |
| CN(C)c1oc(-c2ccccc2Cl)nc1S(=O)(=O)c1ccccc1 | inconclusive: 79.4 µM [inhibitor, single point] |
| Cc1ccc(Cn2c(C3CCCN3c3nc(C)cs3)nc3cc(C(F)(F)F)ccc32)cc1 (stereo unspecified) | inconclusive: 79.4 µM [inhibitor, single point] |
| CNC(=O)C1CCN(C(=O)c2ccc(-c3ccccc3)cc2)CC1 | inconclusive: 89.1 µM [inhibitor, single point] |
| COc1ccc(N2C(=O)c3ccccc3C2=O)cc1 | inactive |
| COc1cc(C(=O)N(Cc2ccc(N(C)C)cc2)CC2CCCO2)cc(OC)c1OC (stereo unspecified) | active: 79.4 µM |
| CC(=O)N1N=C(c2c(-c3ccccc3)c3cc(C)ccc3[nH]c2=O)CC1c1ccco1 (stereo unspecified) | inconclusive: 79.4 µM [inhibitor, single point] |
| COc1ccc(OC)c(-n2c(CN3CCC(C(N)=O)CC3)nc3ccccc3c2=O)c1 | inconclusive: 89.1 µM [inhibitor, single point] |
| O=C(NC(=S)NCCC1=CCCCC1)c1ccc(Br)o1 | inconclusive: 50.1 µM [inhibitor, partial curve] |
| Cc1cccc2cc(CN(CC3CCCO3)C(c3nnnn3Cc3ccco3)C(C)C)c(=O)[nH]c12 (stereo unspecified) | inconclusive: 89.1 µM [inhibitor, single point] |
| Cc1cccc(CNc2ncnc3ccc(-c4ccc5c(ccn5C)c4)cc23)c1 | inconclusive: 79.4 µM [inhibitor, single point] |
| CCOC(=O)CN1C(c2ccc(O)cc2)Nc2ccc(Br)cc2C1c1ccccc1 (stereo unspecified) | inconclusive: 70.8 µM [inhibitor, single point] |
| CSCCC(NC(=O)c1ccc(Cl)c([N+](=O)[O-])c1)C(=O)N1CCN(C/C=C/c2ccccc2)CC1 (stereo unspecified) | inconclusive: 79.4 µM [inhibitor, single point] |
| C#CCOCCOCCOCCNc1nc(N2CCN(C(=O)CCCCCCCCCCNC(=O)Cn3cc(C[C@@H](C)O)nn3)CC2)nc(N2CCN(C(=O)CCCCCCCCCCNC(=O)Cn3cc(C[C@@H](C)O)nn3)CC2)n1 | inactive |
| Cc1cc(C)nc(NS(=O)(=O)c2ccc(CC(C)C)cc2)c1 | inactive |

| Structure (SMILES) | Potency |
| --- | --- |
| O=C1c2ccccc2C(Nc2ccc(F)c(Cl)c2)N1Cc1ccco1 (stereo unspecified) | inconclusive: 44.7 µM [inhibitor, partial curve] |
| COc1ccc(CNC(=O)c2cccc(N(C)C)c2)cc1 | inconclusive: 89.1 µM [inhibitor, single point] |
| COc1ccc(-c2nc(CN3CCN(c4ncnc5ccccc45)CC3)c(C)o2)c(OC)c1 | inactive |
| NS(=O)(=O)c1cccc(NC(=O)COC(=O)COc2ccc3ccccc3c2)c1 | inconclusive: 89.1 µM [inhibitor, single point] |
| CCOC(=O)c1ccccc1NC(=O)Nc1cc2c(cc1N1CCCC1)n(C)c(=O)n2C | active: 50.1 µM |
| CCc1nc(N2CCCC2C(=O)O)c2oc3ccccc3c2n1 (stereo unspecified) | inconclusive: 79.4 µM [inhibitor, partial curve] |
| COC(=O)C1=C(C(=O)OC)N2C=CC=CC2(C)C(C(=O)OC)=C1C(=O)OC (stereo unspecified) | inconclusive: 56.2 µM [inhibitor, partial curve] |
| NCCCC[C@@H]1NC(=O)[C@H](CCC(=O)O)NC(=O)c2cc([N+](=O)[O-])cc(I)c2SC[C@@H](C(=O)NCC(N)=O)NC1=O | inconclusive: 89.1 µM [inhibitor, single point] |
| O=C(COc1ccccc1F)N1N=C(c2cccs2)CC1c1ccco1 (stereo unspecified) | inconclusive: 79.4 µM [inhibitor, single point] |
| O=c1[nH]c(-c2ccccc2)c(-c2ccccc2)o1 | inactive |
| COc1cccc(CNC(=O)C(=O)NCC(c2ccc3c(c2)OCO3)N2CCOCC2)c1 (stereo unspecified) | inactive |
| C=Cc1ccc(Cn2c(C(=O)O)c(CNC3CCCCC3)c3ccc(OC)cc32)cc1 | inconclusive: 35.5 µM [inhibitor, partial curve] |
| CC(C)C1N=C2c3ccccc3N=C(SCC(=O)c3ccc(O)c(O)c3)N2C1=O (stereo unspecified) | inconclusive: 50.1 µM [inhibitor, partial curve] |
| CC(C)Oc1ccc(CNC(=O)c2ccc3c(c2)N(C)CCS3)cc1 | inconclusive: 11.2 µM [inhibitor, partial curve] |
| NNc1nc(-c2ccccc2Cl)nc2sc3c(c12)CCCC3 | inconclusive: 31.6 µM [inhibitor, partial curve] |
| CN(C)/N=C/c1cn(-c2ccccc2)nc1-c1cccnc1 | inconclusive: 50.1 µM [inhibitor, partial curve] |
| CC1=NN(c2ccc(C)cc2C)C(=O)C1C(c1ccccc1O)C1C(=O)N(c2ccc(C)cc2C)N=C1C (stereo unspecified) | inactive |
| COc1ccc(NC(=O)CCN2C(=O)c3ccccc3S2(=O)=O)cc1 | inconclusive: 100 µM [inhibitor, single point] |
| Cc1ccc(S(=O)(=O)NCCOC(=O)Nc2sc(=S)n(C)c2C)cc1 | inconclusive: 8.91 µM [inhibitor, single point] |
| CCOC(=O)C1(Cc2cccc(OC)c2)CCN(C2CCOCC2)CC1 | active: 50.1 µM |
| CC/C(=N\NC(=S)Nc1cccc(C)c1)c1ccccc1 | inconclusive: 44.7 µM [inhibitor, partial curve, poor fit] |
| CCOC(=O)C1(CCc2ccccc2)CCN(Cc2cc(OC)c(OC)cc2OC)CC1 | inconclusive: 44.7 µM [inhibitor, partial curve] |
